# Test results from the supplement of paper PMC8728848.
# The other results are listed elsewhere or left out.
# B1: Lmo1413 (Listeria monocytogenes), Q8Y783 (protein)
# chain: MKHAKKSLFTFIIFMTILSITFNPFSAKAAPLMLNLPAPQVDQLYIGDDYITGKLQQEVPMHYPGNAAYVLFNNKQYNITDYTVENDVNFRLKLPKTLEAGDTLNYFTITGNVLDPVAYPGQESYKLAGPFSPIEKANIQVNYVDETNQTLATSDTLSGKLGETYTTSPKAIDGYQVKETPTNATGTYTTNTETIQINYVYEKTAVEGANVSVEYINEATNESIAPTETLSGKIGTTFQAEVKEIDGYELSQVPSNQSGTYTDQTQSVIFKYKKITTPDEVAKDVTVTYKDTKGNQLADPVILKGDIGSTFETEAKSFKGYKLTKTPSNHSSVFTSDSQEVEYVYSKDDAVITPPVTPVNPDKPIINPVKPVNPATSTVPNKNISKKNTTKTVNQTGKTSTALQLPKTGDSENNLPLIIGVSLLISGVYIFTTRRKRVK
# Legend:
# Assay in all cases: glycan array binding signal (z-score within array); higher = stronger binding
# Conditions in all cases: glycan notation: IUPAC condensed, linker removed
# [1] = target: Fuc(a1-2)Gal
# Procedure, shortened: (§1)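 Glycan array data were curated from 3228 arrays in the Consortium for Functional Glycomics database and kept only where the protein sequence was available. Glycan names were converted to IUPAC-condensed notation, and columns mapping to the same glycan were averaged. The binding signal is a within-array Z-score, averaged across arrays of the same protein sequence at different concentrations or buffers and across linkers. Negative Z-scores can be read as non-binding.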
# [2] = target: Fuc(a1-2)Gal(b1-3)GalNAc
# Procedure, shortened: as §1
# [3] = target: Fuc(a1-2)Gal(b1-3)GalNAc(a1-3)[Fuc(a1-2)]Gal(b1-4)Glc
# Procedure, shortened: as §1
# [4] = target: Fuc(a1-2)Gal(b1-3)GalNAc(a1-3)[Fuc(a1-2)]Gal(b1-4)GlcNAc
# Procedure, shortened: as §1
# [5] = target: Fuc(a1-2)Gal(b1-3)GalNAc(b1-3)Gal
# Procedure, shortened: as §1
# [6] = target: Fuc(a1-2)Gal(b1-3)GalNAc(b1-3)Gal(a1-4)Gal(b1-4)Glc
# Procedure, shortened: as §1
# [7] = target: Fuc(a1-2)Gal(b1-3)GalNAc(b1-4)[Neu5Ac(a2-3)]Gal(b1-4)Glc
# Procedure, shortened: as §1
# [8] = target: Fuc(a1-2)Gal(b1-3)GlcNAc
# Procedure, shortened: as §1
# [9] = target: Fuc(a1-2)Gal(b1-3)GlcNAc(b1-2)Man(a1-3)[Fuc(a1-2)Gal(b1-3)GlcNAc(b1-2)Man(a1-6)]Man(b1-4)GlcNAc(b1-4)GlcNAc
# Procedure, shortened: as §1
# [10] = target: Fuc(a1-2)Gal(b1-3)GlcNAc(b1-3)Gal(b1-4)Glc
# Procedure, shortened: as §1
# [11] = target: Fuc(a1-2)Gal(b1-3)GlcNAc(b1-3)[Fuc(a1-3)[Gal(b1-4)]GlcNAc(b1-6)]Gal(b1-4)Glc
# Procedure, shortened: as §1
# [12] = target: Fuc(a1-2)Gal(b1-3)[Fuc(a1-4)]GlcNAc
# Procedure, shortened: as §1
# [13] = target: Fuc(a1-2)Gal(b1-3)[Fuc(a1-4)]GlcNAc(b1-2)Man(a1-3)[Fuc(a1-2)Gal(b1-3)[Fuc(a1-4)]GlcNAc(b1-2)Man(a1-6)]Man(b1-4)GlcNAc(b1-4)GlcNAc
# Procedure, shortened: as §1
# [14] = target: Fuc(a1-2)Gal(b1-3)[Fuc(a1-4)]GlcNAc(b1-3)[Fuc(a1-3)[Gal(b1-4)]GlcNAc(b1-6)]Gal(b1-4)Glc
# Procedure, shortened: as §1
# [15] = target: Fuc(a1-2)Gal(b1-3)[Fuc(a1-4)]GlcNAc(b1-3)[Gal(b1-4)GlcNAc(b1-6)]Gal(b1-4)Glc
# Procedure, shortened: as §1
# [16] = target: Fuc(a1-2)Gal(b1-4)Glc
# Procedure, shortened: as §1
# [17] = target: Fuc(a1-2)Gal(b1-4)Glc6S
# Procedure, shortened: as §1
# [18] = target: Fuc(a1-2)Gal(b1-4)GlcNAc
# Procedure, shortened: as §1
# [19] = target: Fuc(a1-2)Gal(b1-4)GlcNAc(b1-2)Man(a1-3)[Fuc(a1-2)Gal(b1-4)GlcNAc(b1-2)Man(a1-6)]Man(b1-4)GlcNAc(b1-4)GlcNAc
# Procedure, shortened: as §1
# [20] = target: Fuc(a1-2)Gal(b1-4)GlcNAc(b1-3)Gal(b1-4)GlcNAc
# Procedure, shortened: as §1
# [21] = target: Fuc(a1-2)Gal(b1-4)GlcNAc(b1-3)Gal(b1-4)GlcNAc(b1-3)Gal(b1-4)GlcNAc
# Procedure, shortened: as §1
# [22] = target: Fuc(a1-2)Gal(b1-4)GlcNAc(b1-3)GalNAc
# Procedure, shortened: as §1
# [23] = target: Fuc(a1-2)Gal(b1-4)GlcNAc6S
# Procedure, shortened: as §1
# [24] = target: Fuc(a1-2)Gal(b1-4)[Fuc(a1-3)]GlcNAc
# Procedure, shortened: as §1
# [25] = target: Fuc(a1-2)Gal(b1-4)[Fuc(a1-3)]GlcNAc(b1-2)Man(a1-3)[Fuc(a1-2)Gal(b1-4)[Fuc(a1-3)]GlcNAc(b1-2)Man(a1-6)]Man(b1-4)GlcNAc(b1-4)GlcNAc
# Procedure, shortened: as §1
# [26] = target: Fuc(a1-2)Gal(b1-4)[Fuc(a1-3)]GlcNAc(b1-3)Gal(b1-4)[Fuc(a1-3)]GlcNAc
# Procedure, shortened: as §1
# [27] = target: Fuc(a1-2)Gal(b1-4)[Fuc(a1-3)]GlcNAc(b1-3)Gal(b1-4)[Fuc(a1-3)]GlcNAc(b1-3)Gal(b1-4)[Fuc(a1-3)]GlcNAc
# Procedure, shortened: as §1
# [28] = target: Fuc(a1-2)Gal6S(b1-4)Glc
# Procedure, shortened: as §1
# [29] = target: Fuc(a1-2)Gal6S(b1-4)Glc6S
# Procedure, shortened: as §1
# [30] = target: Fuc(a1-2)Gal6S(b1-4)GlcNAc
# Procedure, shortened: as §1
# [31] = target: Fuc(a1-2)[Gal(a1-3)]Gal
# Procedure, shortened: as §1
# [32] = target: Fuc(a1-2)[Gal(a1-3)]Gal(b1-3)GlcNAc
# Procedure, shortened: as §1
# [33] = target: Fuc(a1-2)[Gal(a1-3)]Gal(b1-3)GlcNAc(b1-2)Man(a1-3)[Fuc(a1-2)[Gal(a1-3)]Gal(b1-3)GlcNAc(b1-2)Man(a1-6)]Man(b1-4)GlcNAc(b1-4)GlcNAc
# Procedure, shortened: as §1
# [34] = target: Fuc(a1-2)[Gal(a1-3)]Gal(b1-4)Glc
# Procedure, shortened: as §1
# [35] = target: Fuc(a1-2)[Gal(a1-3)]Gal(b1-4)GlcNAc
# Procedure, shortened: as §1
# [36] = target: Fuc(a1-2)[Gal(a1-3)]Gal(b1-4)GlcNAc(b1-2)Man(a1-3)[Fuc(a1-2)[Gal(a1-3)]Gal(b1-4)GlcNAc(b1-2)Man(a1-6)]Man(b1-4)GlcNAc(b1-4)GlcNAc
# Procedure, shortened: as §1
# [37] = target: Fuc(a1-2)[Gal(a1-3)]Gal(b1-4)[Fuc(a1-3)]GlcNAc
# Procedure, shortened: as §1
binder,measurement,setting,value
B1,glycan array binding signal (z-score),[1],-0.003
same,glycan array binding signal (z-score),[2],-0.202
same,glycan array binding signal (z-score),[3],-0.22
same,glycan array binding signal (z-score),[4],-0.141
same,glycan array binding signal (z-score),[5],-0.219
same,glycan array binding signal (z-score),[6],-0.201
same,glycan array binding signal (z-score),[7],-0.218
same,glycan array binding signal (z-score),[8],-0.177
same,glycan array binding signal (z-score),[9],0.116
same,glycan array binding signal (z-score),[10],0.045
same,glycan array binding signal (z-score),[11],-0.219
same,glycan array binding signal (z-score),[12],-0.221
same,glycan array binding signal (z-score),[13],0.547
same,glycan array binding signal (z-score),[14],-0.167
same,glycan array binding signal (z-score),[15],-0.22
same,glycan array binding signal (z-score),[16],-0.192
same,glycan array binding signal (z-score),[17],-0.167
same,glycan array binding signal (z-score),[18],-0.158
same,glycan array binding signal (z-score),[19],-0.115
same,glycan array binding signal (z-score),[20],-0.153
same,glycan array binding signal (z-score),[21],0.015
same,glycan array binding signal (z-score),[22],-0.228
same,glycan array binding signal (z-score),[23],-0.135
same,glycan array binding signal (z-score),[24],-0.214
same,glycan array binding signal (z-score),[25],0.083
same,glycan array binding signal (z-score),[26],-0.249
same,glycan array binding signal (z-score),[27],-0.181
same,glycan array binding signal (z-score),[28],-0.165
same,glycan array binding signal (z-score),[29],-0.193
same,glycan array binding signal (z-score),[30],-0.222
same,glycan array binding signal (z-score),[31],-0.228
same,glycan array binding signal (z-score),[32],-0.226
same,glycan array binding signal (z-score),[33],-0.164
same,glycan array binding signal (z-score),[34],-0.182
same,glycan array binding signal (z-score),[35],-0.192
same,glycan array binding signal (z-score),[36],-0.156
same,glycan array binding signal (z-score),[37],0.176
